Measurements reported in PubChem BioAssay AID1346428 (National Center for Advancing Translational Sciences (NCATS), 2018).
Among all 48,000 compounds or so, about 1,200 (2.5%) were called active. Roughly 2% stayed inconclusive and do not appear here.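 How the source made its calls: active means activation of at least 60% and not above a set upper limit (about 1 call in 100 departs from these limits); inconclusive means activation of 40% to 60%, or above that upper limit; inactive means activation under 40%.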 The list shows a part of the results.

Biological target: Probable G-protein coupled receptor 32 (Homo sapiens) (UniProt O75388)
Chain of UniProt O75388 (O75388 whole entry, looked up): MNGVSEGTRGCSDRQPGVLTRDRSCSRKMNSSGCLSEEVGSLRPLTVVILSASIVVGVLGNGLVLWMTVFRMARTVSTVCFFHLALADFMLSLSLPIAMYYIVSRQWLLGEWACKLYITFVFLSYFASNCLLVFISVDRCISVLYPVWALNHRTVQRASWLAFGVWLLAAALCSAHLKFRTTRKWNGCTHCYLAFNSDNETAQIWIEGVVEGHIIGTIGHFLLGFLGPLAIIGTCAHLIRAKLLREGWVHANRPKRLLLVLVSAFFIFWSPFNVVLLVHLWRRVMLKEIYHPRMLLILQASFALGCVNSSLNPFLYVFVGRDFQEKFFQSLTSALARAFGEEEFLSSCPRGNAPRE
Test: qHTS for Agonists of Human Resolvin D1 Receptor DRV1; further: 0% is about no effect
Details: CHO-K1 GPR32 beta-arrestin PathHunter luminescence, 90 min; at 76.9 µM; active compounds read high; zero percent set by DMSO-only wells
In short: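 Readings come from a cell-based beta-arrestin complementation format: CHO-K1 GPR32 stable cells (2,500/well) treated 90 min with compounds, then beta-Gal substrate added for 1 h before chemiluminescence imaging.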

Q: With `O=C(CSc1nc2c([nH]c3ccccc32)c(=O)n1-c1ccc(Cl)cc1)N1CCc2ccccc21` as the compound, how does the activation read?
A: inactive: 11.1%

Q: How did the activation turn out when `Cc1ccc2c(=O)cc(C(=O)Nc3ccc(S(=O)(=O)N(C)c4ccccc4)cc3)oc2c1C` was run?
A: inactive: -4.36%

Q: With `O=C(CSc1nc2ccccc2nc1Cc1ccc(Cl)cc1)Nc1ccc2c(c1)OCO2` as the compound, how does the activation read?
A: inactive: -12.9%

Q: For `O=C(Cn1ncn2c(cc3sccc32)c1=O)NCCc1ccccc1`, which activation is on record?
A: inactive: -4.46%

Q: Which activation does the source give for `COc1ccc(CCNC(=O)CCc2c(C)c3cc4c(C)c(C)oc4cc3oc2=O)cc1OC` here?
A: inactive: 40.8%

Q: `Cc1ccc(-c2nc(CCNC(=O)c3ccc(C)c(C)c3)cs2)cc1` was tested. Which activation did it give?
A: inactive: 0.206%

Q: Which activation does the source give for `CCOC(=O)c1ccc(NC2=CC(c3ccc(OCC)cc3)N(c3ccc(C(=O)OCC)cc3)C2=O)cc1` (configuration not stated) here?
A: inactive: -6.64%

Q: `CCOC(=O)c1cnc2cc(C(F)(F)F)ccc2c1Nc1cc(C)ccc1OC` was tested. Which activation did it give?
A: inactive: -8.98%

Q: `CC(=O)N1c2ccccc2C(=O)C1N1CCN(c2ccccc2F)CC1` (configuration not stated) was tested. Which activation did it give?
A: inactive: -27.9%

Q: Which activation does the source give for `COc1ccc(-c2noc(CN(C)S(=O)(=O)c3c(C)cc(C)cc3C)n2)cc1OC` here?
A: inactive: -11.6%

Q: `CCC(C(=O)Nc1cccc(Cl)c1C)n1nc(C)c2sc3ccccc3c2c1=O` (configuration not stated) was tested. Which activation did it give?
A: inactive: -15.1%

Q: For `COc1ccc(C)cc1NC(=O)c1ccc(NS(=O)(=O)c2c(C)noc2C)cc1`, which activation is on record?
A: inactive: 24%

Q: How did the activation turn out when `CCCCn1cc(S(=O)(=O)c2ccc(C)cc2)c(=O)c2cc(F)c(N3CCCCC3)cc21` was run?
A: inactive: -4.64%

Q: `Cc1cc(O)c(C(c2ccccc2)N2CCCCC2)c(=O)n1Cc1ccco1` (configuration not stated) was tested. Which activation did it give?
A: inactive: -8.05%

Q: `CCOc1ccccc1NC(=O)CSc1nnc2[nH]c(=O)cc(C)n12` was tested. Which activation did it give?
A: inactive: 9.69%

Q: How did the activation turn out when `COc1ccccc1-c1nc2n(n1)C(c1ccccc1Cl)C(C(=O)Nc1cccnc1)=C(C)N2` (configuration not stated) was run?
A: inactive: -15.2%

Q: How did the activation turn out when `CC(C)(C)OC(=O)N1CCC(c2c(C(=O)NCc3ccccc3)cnn2-c2cccc(F)c2)CC1` was run?
A: inactive: -6.57%

Q: Which activation does the source give for `COCCCNC(=O)C1CCN(Cc2cc3ccccc3n2Cc2ccccc2C)CC1` here?
A: inactive: 1.86%

Q: How did the activation turn out when `Cc1oc(-c2ccc(Cl)cc2)nc1CN1CCCC(C(=O)NCCc2ccc(Cl)cc2)C1` (configuration not stated) was run?
A: inactive: 42.8%

Q: With `CCSc1nn(CC(=O)Nc2cccc(CC)c2)c(N)c1S(=O)(=O)c1ccccc1` as the compound, how does the activation read?
A: active: 93.6%

Q: Which activation does the source give for `Cc1ccc(S(=O)(=O)c2c(O)cc(C)c(NS(=O)(=O)c3ccc(Br)cc3)c2C)cc1` here?
A: inactive: 41.9%

Q: With `COC(=O)CCN(C(=O)C1CCN(S(=O)(=O)c2c(C)noc2/C=C/c2ccccc2F)CC1)c1ccccc1` as the compound, how does the activation read?
A: inactive: -12.2%
